One experiment deals with T1, GST-RasGAP aa 158–1047 (UniProt P20936).
T1 sequence: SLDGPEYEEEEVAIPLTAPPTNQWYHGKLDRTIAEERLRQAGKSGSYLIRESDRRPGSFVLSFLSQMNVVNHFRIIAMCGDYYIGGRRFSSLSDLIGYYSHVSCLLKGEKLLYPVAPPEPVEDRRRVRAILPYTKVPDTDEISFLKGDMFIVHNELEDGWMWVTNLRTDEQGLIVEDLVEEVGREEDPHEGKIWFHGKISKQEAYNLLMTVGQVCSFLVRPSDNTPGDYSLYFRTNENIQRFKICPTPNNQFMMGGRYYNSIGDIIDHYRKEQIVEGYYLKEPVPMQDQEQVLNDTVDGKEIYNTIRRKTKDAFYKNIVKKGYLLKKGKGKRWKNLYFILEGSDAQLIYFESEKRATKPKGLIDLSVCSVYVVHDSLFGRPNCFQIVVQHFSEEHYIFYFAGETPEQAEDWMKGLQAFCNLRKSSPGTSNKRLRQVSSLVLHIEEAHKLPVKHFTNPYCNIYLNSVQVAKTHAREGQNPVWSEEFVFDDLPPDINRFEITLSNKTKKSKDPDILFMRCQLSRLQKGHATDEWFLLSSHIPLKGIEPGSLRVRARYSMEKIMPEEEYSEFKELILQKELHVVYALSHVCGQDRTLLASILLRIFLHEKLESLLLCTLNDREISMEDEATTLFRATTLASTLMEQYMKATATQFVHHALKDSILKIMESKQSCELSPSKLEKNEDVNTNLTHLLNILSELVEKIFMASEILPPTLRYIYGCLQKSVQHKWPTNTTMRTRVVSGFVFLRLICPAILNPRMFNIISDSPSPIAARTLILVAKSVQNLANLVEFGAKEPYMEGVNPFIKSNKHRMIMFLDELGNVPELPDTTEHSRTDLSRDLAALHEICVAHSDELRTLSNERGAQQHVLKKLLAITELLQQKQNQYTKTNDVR
Kind of experiment: far-Western, overlay or dot blot; purified merlin incubated with GST-RasGAP fragments immobilized on a nitrocellulose membrane; both purified.

Protein sequences, listed by entry. Tags and fused reporters are not part of them. Lines headed by an entry give the natural chain unless they say otherwise; changes in a name come on top. Residues count along the entry.
UniProt P35240: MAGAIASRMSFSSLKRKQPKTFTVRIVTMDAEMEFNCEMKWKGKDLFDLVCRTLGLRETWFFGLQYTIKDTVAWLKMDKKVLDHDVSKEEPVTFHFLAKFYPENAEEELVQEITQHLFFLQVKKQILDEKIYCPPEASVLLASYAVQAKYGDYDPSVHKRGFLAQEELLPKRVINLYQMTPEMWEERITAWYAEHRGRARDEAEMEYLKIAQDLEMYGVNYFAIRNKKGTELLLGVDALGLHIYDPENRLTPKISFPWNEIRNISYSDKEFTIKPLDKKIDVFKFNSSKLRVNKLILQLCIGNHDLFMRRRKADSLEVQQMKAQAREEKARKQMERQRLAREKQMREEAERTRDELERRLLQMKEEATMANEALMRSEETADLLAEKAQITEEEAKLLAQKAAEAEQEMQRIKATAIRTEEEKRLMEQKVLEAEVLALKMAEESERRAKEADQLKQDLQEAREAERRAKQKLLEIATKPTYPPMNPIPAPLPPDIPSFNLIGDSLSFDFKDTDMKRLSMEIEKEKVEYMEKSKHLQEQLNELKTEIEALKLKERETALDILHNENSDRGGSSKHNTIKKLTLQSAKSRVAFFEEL
GST-merlin FERM (aa 1–313): residues 1-313 of P35240
GST-merlin aa 1–73: residues 1-73 of P35240
GST-merlin α-helical-tail domains (aa 312–595): residues 312-595 of P35240

Experiment [1] deals with T2, GST-RasGAP aa 158–1047 C540Y (UniProt P20936).
T2 sequence: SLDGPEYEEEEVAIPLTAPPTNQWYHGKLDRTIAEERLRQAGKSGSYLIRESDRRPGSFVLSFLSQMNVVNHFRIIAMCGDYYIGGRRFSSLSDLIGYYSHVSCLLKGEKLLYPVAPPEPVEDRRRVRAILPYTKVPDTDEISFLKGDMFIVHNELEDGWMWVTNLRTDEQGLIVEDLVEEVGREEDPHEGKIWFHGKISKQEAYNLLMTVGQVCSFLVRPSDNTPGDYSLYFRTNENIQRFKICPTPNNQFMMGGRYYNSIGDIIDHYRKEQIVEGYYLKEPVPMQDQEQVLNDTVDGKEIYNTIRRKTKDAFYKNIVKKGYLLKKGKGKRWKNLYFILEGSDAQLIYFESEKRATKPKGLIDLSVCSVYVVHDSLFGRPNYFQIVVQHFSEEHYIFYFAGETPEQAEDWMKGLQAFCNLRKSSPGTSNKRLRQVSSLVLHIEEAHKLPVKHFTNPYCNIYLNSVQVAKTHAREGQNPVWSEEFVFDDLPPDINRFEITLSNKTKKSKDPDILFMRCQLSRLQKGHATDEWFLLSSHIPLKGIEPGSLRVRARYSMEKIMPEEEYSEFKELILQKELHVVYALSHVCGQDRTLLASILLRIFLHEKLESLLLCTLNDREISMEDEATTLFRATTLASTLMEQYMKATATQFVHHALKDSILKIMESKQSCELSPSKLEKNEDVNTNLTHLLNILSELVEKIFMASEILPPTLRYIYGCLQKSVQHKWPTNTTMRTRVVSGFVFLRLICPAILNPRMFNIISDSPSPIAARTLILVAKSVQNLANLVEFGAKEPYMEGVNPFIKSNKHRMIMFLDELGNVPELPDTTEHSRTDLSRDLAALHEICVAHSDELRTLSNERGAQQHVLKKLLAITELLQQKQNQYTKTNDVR
Described as above.

For experiment [2], the target named is T3, GST-RasGAP partial C2 domain (aa 606–648) (UniProt P20936).
T3 sequence: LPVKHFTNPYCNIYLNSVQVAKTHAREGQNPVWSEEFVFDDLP
The description is as above.

Experiment [3] concerns the target GST-merlin FERM (aa 1–313) (UniProt P35240). Kind of experiment: pull-down; GST-merlin fragments pull down RasGAP from Sc4 cell lysate; western blot; only the target purified. (In general: A western blot detects proteins with antibodies after separation by electrophoresis.)
Another experiment addresses GST-merlin aa 1–18 (UniProt P35240). The description is as above.
For a further experiment, the target named is GST-merlin aa 1–73 (UniProt P35240). The description is as above.
Experiment [4] concerns the target GST-merlin α-helical-tail domains (aa 312–595) (UniProt P35240). The description is as above.

Results are given in words; binding and its absence hold for the method and conditions named. For some of these results: In cells and extracts the contact can be indirect. Some entries that bind do so weakly or less than the wild type. For some of these results: Where a sequence is shown, tags or fusion partners need not be part of it.

Data on two molecules can be found in PMC6756068, “The NF2 tumor suppressor merlin interacts with Ras and RasGAP, which may modulate Ras signaling” (Oncogene, 2019).

Consider “purified merlin (far-western) (from UniProt P35240 1-595)”, for which the binding entry in the experiment with GST-RasGAP aa 158–1047 is given as “binds”; in experiment [1] it was “binds”; in experiment [2], “no binding”.

B1: RasGAP of Sc4 cells (protein, UniProt E9PYG6 1-1038)
chain: MMAAEAGSEEGGPATAGPGGGAATGSSAYSAACRVKLPAALPVAAAPCPGLADADLVAALGGGAASGSGFLGTGPVAGVLGGAALTGSAAAGVAGAAAAGPAGDVAFTKGTLSLPAETLGPGGGFPPLPPPPQLPPLGSGLGTVDEGDSLDGPEYEEEEVAIPLTAPPTNQWYHGKLDRTIAEERLRQAGKSGSYLIRESDRRPGSFVLSFLSQTNVVNHFRIIAMCGDYYIGGRRFSSLSDLIGYYSHVSCLLKGEKLLYPVAPPEPVEDRRRVRAILPYTKVPDTDEISFLKGDMFIVHNELEDGWMWVTNLRTDEQGLIVEDLVEEVGREEDPHEGKIWFHGKISKQEAYNLLMTVGQVCSFLVRPSDNTPGDYSLYFRTNENIQRFKICPTPNNQFMMGGRYYNSIGDIIDHYRKEQIVEGYYLKEPVPMQDQGQVLNDTVDGKEIYNTIRRKTKDAFYKNIVKKGYLLKKGKGKRWKNLYFILEGSDAQLIYFESEKRATKPKGLIDLSVCSVYVVHDSLFGRPNCFQIVVQHFSEEHYIFYFAGETPEQAEDWMKGLQAFCSLRKSSPGTSNKRLRQVSSLVLHIEEAHKLPVKHFTNPYCNIYLNSVQVAKTHAREGQNPVWSEEFVFDDLPPDINRFEITLSNKTKKSKDPDILFMRCQLSRLQKGHATDEWFLLSSHIPLKGIEPGSLRVRARYSMEKIMPEEEYSEFKELILQKELHVVYALSHVCGQDRTLLASILLKIFLHEKLESLLLCTLNDREISMEDEATTLFRATTLASTLMEQYMKATATQFVHHALKDSILKIMESKQSCELSPSKLEKNEDVNTNLAHLLSILSELVEKIFMASEILPPTLRYIYGCLQKSVQHKWPTNNTMRTRVVSGFVFLRLICPAILNPRMFNIISDSPSPIAARTLTLVAKSVQNLANLVEFGAKEPYMEGVNPFIKSNKHRMIMFLDELGNVPELPDTTEHSRTDLSRDLAALHEICVAHSDELRTLSNERGVQQHVLKKLLAITELLQQKQNQYTKTNDIR
Regarding B1, the binding result in experiment [3] is reported as “binds”; with GST-merlin aa 1–18, “no binding”; with GST-merlin aa 1–73, “binds”; in experiment [4], “binds”.
